The RNAGym collection of RNA variant scans (doi:10.1073/pnas.2313332121)
Variants at the background level are over-represented here.

B1: TPR 5TU (parent)
chain: GGAUCUUCUCGAUCUAACAAAAAAGACAAAUCUGCCACAAAGCUUGAGAGCAUCUUCGGAUGCAGAGGCGGCAGCCUUCGGUGGCGCGAUAGCGCCAACGUUCUCAACUAUGACACGCAAAACGCGUGCUCCGUUGAAUGGAGUUUAUCAUG

Variants of: B1
Assay: polymerase ribozyme fitness, log enrichment relative to wild type (log ratio); higher = more active; in vitro selection for triplet polymerase activity
In short: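 Mutant libraries for each subunit of a heterodimeric triplet polymerase ribozyme were made by PCR and then transcribed. Each library underwent one round of in vitro selection in triplicate: annealing with a biotinylated primer, the partner subunit and triplets, frozen incubation at −7 °C, gel excision of extended constructs, streptavidin-bead capture and RT-PCR. Input and output libraries were Illumina-sequenced, and only genotypes with ≥10 input reads and ≥1 read per output were kept. Fitness is the logarithm, base 2, of genotype enrichment over wild-type enrichment, computed from inverse-variance-weighted replicate averages.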

Variant	polymerase ribozyme fitness (log ratio)
GGAUCUUCUCGAUCUAACAAAAAAGACAAAUCUGCCACAAAGCUUGAGAGCAUCUUCGGAGGCAGACGCGGCAACCUUCGGUGGCGCGAUAGCGCCAACGUUCUGAACUAUGACACGCAAAACGCAUGCUCCGUUAAAUGGAGUUUAUCAUG	≤ -4.2
GGAUCUUCUCGAUCUAACAAAAAAGACAAAUCUGCCACAAAGCUUGAGAGCAUCUUCGGAGGCAGAGGCGGCAGUCUGCGGUGGCGCGAUAGCUUCAACGUUCUCAACUAUGACACGCAAAAAGCGUGCUCCGUUGAAUGGCGUUUAUCAUG	≤ -4.2
GGAUCUUCUCGAUCUAACAAAAAAGACAAAUCUGCCACAAAGCUUGAGAGCAUCUUCGGAGGCAGAGGCGGCAGCCUUCGGUGGAGCGAUAGCGCCAACGUUCUCAACUAUGACACGCAAAACGCGUGCUCCGUUGAAUGGACUUUAUCAUG	-3.43
GGAUCUUCUCGAUCUAACAAAAAAGACAAAUCUGCCACAAAGCUUGAGAGCAUCUUCGGAUACCGAGGCGGCAGCCUUCGGUGGUGCGAUAGCGGCAACGUUCUGAACUAUGACACGCAAUACGCGUGCUCCGGUGAAGGGAGUUUAUCACG	≤ -4.2
GGAUCUUCUCGAUCUAACAAAAAAGACAAAUCUGCCACAAAGCUUGAGAGCAUCUUCGGAGGCAGAGGCUGCAGCCUUCGAUGGCGUGAUAGCGCCAACGUUCUCAACUAUGACACGCAAAACGCGUGCUGCGUUGAAUGGAGUUUAUCAUG	≤ -4.2
GGAUCUUCUCGAUCUAACAAAAAAGACAAAUCUGCCACAAAGCUUGAGAGCAUCUUCGGAGGCAGAGGCGGCAGCCUUCGGUGGCGGGAUAGCGCCAACGUUCUCAACUAUGACACGCAAAACGCGUGCUCCGUUGAAUGGAGUUUAUCAUG	≤ -4.2
GGAUCUUCUCGAUCUAACAAAAAAGACAAAUCUGCCACAAAGCUUGAGAGCAUCUUCGGAGGCAGAGGCGGCAGCCUUCGGUGGCGAGAUAGCGGCAACGUUCUCAACUAUGACACGCAAAACGCGUGCUCCGUUGAAUGGAGUUUAUCAUG	≤ -4.2
GGAUCUUCUCGAUCUAACAAAAAAGACAAAUCUGCCACAAAGCUUGAGAGCAUCUUCGGAGACAGAGGCGGCAGCCUUCGGUGGCGUGAUAGCGCCAACGUUCUCAACUAUGACACGCAAAACGCGUGCUCCGUUGAAUGGAGUUUAUCAUG	-1.28
GGAUCUUCUCGAUCUAACAAAAAAGACAAAUCUGCCACAAAGCUUGAGAGCAUCUUCGGAGGCAGAGGCGGCAGCCUUCGGUGGCGCGAUAGGGCCAACGUUCUCAACUAUGACACGCAAAACGCGUGCUCCGUUGAAUGGAGUUUAUCAUG	≤ -4.2
GGAUCUUCUCGAUCUAACAAAAAAGACAAAUCUGCCACAAAGCUUGAGAGCAUCUUCGGAGGCAGAGGCGGCAGCCUUCGGUGGCGCGAUAGCACCAACGUUCUCAAGUAUGACACGCAAAACGCGUGCUCCGUUGAAUGGAGUUUAUCAUG	≤ -4.2
GGAUCUUCUCGAUCUAACAAAAAAGACAAAUCUGCCACAAAGCUUGAGAGCAUCUUCGGAGGCAGAGGCGGCAGCCUUCGGUGGCGCGAUACCGUCAACGUUCUUCACCAUGACACGCAAAACGCGUGCUCCGUUGAGUGGAGUUUAUCAUG	≤ -4.2
GGAUCUUCUCGAUCUAACAAAAAAGACAAAUCUGCCACAAAGCUUGAGAGCAUCUUCGGAGGCAGAGGCGGCAGCCUUCGGUAGCGCGAUAGCGCCAACGUUCUCAACUAUGACACGCAAAACGCGUGCUCCGUUGAAUGGAGUUUAUCAUG	-1.01
GGAUCUUCUCGAUCUAACAAAAAAGACAAAUCUGCCACAAAGCUUGAGAGCAUCUUCGGAGGCAGAGGCGGCAGCCUUCGGUCGCGCGAUAGCGCAAACGUUCGCAACUAUGACACGAAAAAUGCGUACUCCGUUGAAUGGAGUUUAUCAUG	≤ -4.2
GGAUCUUCUCGAUCUAACAAAAAAGACAAAUCUGCCACAAAGCUUGAGAGCAUCUUCGGAGGCAGAGGCGGCAGCCUUCGGUGGCGCGAUAGCGGCAACGUUCUCAACUAUGACACGCAAAACGCGUGCUCCGUCGAAUGGAGUUUAUCAUG	-4.17
GGAUCUUCUCGAUCUAACAAAAAAGACAAAUCUGCCACAAAGCUUGAGAGCAUCUUCGGAGGCAGAGGCGGCAGCCUUCGGUGGCGCGAUAGCCCCACCGUUCUCAACCAUGACACGCAAAACGCGUGCUCCGUUGAAUGACGUUCAUCAUG	≤ -4.2
GGAUCUUCUCGAUCUAACAAAAAAGACAAAUCUGCCACAAAGCUUGAGAGCAUCUUCGGAGGCAGAGGCGCCAGCCUUCGGUGGCGCGAUAGCGCCAACGUGCUCAACUAUGACACGCAAAAUGCGUGCUCCGUUGAAUGGCGUUUAUCAUG	≤ -4.2
GGAUCUUCUCGAUCUAACAAAAAAGACAAAUCUGCCACAAAGCUUGAGAGCAUCUUCGGAGGCAGAGGCGGCAGCCUUCGGUGGCGCAAUAGCGCCAACGUUCUCAACUAUGACACGCAAAACGCGUGCUCCGUUGAAUGGAGUUUAUCAUG	-4.18
GGAUCUUCUCGAUCUAACAAAAAAGACAAAUCUGCCACAAAGCUUGAGAGCAUCUUCGGAGGCAGAGGCGGGAGCCUUUGGGGGUGCGAUAGCGCCAACGUUCUCAACUAUGACACGCAAAACGCGUGCUCCGUUGAAUGUAGUUUAUCAUA	≤ -4.2
GGAUCUUCUCGAUCUAACAAAAAAGACAAAUCUGCCACAAAGCUUGAGAGCAUCUUCGGAGGCAGAGGGGGCAGCCUUCGGGGGCGCGAUAACGCCAUCGUUCUCAACUAUGACACGCAAAACGCGUGCUGCGUUGAAUGGAGUUUAUCAUG	≤ -4.2
